Reference: paper PMC8568969
Results are given in words; binding and its absence hold for the method and conditions named. For part of these data: In cells and extracts the contact can be indirect. Some results given as binding are weak or reduced against the parent protein; the word gives no strength.

Chains of the proteins cited; added tags and fusions are not shown. Lines headed by an entry give the natural chain unless they say otherwise; changes in a name come on top. Residues count along the entry.
UniProt Q9BUA3: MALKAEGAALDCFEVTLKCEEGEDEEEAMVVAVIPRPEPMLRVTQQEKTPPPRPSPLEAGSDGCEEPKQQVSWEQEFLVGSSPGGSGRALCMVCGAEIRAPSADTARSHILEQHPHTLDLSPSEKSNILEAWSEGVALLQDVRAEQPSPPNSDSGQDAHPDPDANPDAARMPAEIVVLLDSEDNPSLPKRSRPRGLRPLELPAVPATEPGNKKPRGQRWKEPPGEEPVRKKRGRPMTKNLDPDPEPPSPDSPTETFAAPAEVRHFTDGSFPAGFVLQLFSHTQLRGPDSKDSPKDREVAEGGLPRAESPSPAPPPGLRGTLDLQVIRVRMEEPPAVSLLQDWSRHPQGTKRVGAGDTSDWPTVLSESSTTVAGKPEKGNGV
GFP-SPINDOC 115–165aa: residues 115-165 of Q9BUA3
UniProt P09874: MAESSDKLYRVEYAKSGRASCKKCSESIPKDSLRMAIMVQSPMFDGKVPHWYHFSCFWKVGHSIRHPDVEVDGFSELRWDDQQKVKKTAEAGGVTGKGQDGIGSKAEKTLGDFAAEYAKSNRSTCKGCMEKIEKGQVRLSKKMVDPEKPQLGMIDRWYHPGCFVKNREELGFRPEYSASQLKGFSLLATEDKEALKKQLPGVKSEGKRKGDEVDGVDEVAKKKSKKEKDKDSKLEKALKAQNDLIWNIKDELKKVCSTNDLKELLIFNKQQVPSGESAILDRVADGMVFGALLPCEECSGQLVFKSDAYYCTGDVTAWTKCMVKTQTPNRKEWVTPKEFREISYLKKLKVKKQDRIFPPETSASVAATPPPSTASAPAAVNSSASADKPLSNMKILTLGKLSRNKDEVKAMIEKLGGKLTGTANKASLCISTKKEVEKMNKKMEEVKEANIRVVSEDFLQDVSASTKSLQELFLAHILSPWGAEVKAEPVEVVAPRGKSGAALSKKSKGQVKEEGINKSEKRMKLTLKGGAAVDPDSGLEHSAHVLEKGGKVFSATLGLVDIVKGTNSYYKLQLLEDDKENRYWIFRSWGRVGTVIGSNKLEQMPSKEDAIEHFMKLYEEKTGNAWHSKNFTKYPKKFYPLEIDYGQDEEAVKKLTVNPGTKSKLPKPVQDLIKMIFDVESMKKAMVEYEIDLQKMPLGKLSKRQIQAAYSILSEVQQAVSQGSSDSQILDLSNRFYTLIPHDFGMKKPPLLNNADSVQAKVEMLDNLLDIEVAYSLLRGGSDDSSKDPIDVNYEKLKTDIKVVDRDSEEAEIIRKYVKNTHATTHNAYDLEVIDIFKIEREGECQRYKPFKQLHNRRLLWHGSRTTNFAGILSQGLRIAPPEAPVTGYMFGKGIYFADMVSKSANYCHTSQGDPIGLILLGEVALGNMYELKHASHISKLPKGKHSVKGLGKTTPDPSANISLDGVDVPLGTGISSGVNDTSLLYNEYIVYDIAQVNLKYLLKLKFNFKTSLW
UniProt Q9UGN5: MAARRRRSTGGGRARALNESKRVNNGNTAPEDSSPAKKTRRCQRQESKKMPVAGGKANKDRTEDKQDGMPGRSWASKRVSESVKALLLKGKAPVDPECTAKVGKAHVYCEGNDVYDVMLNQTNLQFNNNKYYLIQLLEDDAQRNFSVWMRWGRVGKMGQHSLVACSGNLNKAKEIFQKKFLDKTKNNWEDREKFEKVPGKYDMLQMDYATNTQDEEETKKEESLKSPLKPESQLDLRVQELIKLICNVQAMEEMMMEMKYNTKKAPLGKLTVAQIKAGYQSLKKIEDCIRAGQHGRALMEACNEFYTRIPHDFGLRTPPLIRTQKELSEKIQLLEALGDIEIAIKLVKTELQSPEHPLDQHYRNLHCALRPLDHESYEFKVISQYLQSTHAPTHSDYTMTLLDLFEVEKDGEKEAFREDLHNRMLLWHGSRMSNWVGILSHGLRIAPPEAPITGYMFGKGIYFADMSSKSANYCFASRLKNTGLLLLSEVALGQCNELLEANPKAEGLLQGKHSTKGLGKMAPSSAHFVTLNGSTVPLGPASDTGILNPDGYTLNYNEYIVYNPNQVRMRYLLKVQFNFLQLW
UniProt Q9Y657: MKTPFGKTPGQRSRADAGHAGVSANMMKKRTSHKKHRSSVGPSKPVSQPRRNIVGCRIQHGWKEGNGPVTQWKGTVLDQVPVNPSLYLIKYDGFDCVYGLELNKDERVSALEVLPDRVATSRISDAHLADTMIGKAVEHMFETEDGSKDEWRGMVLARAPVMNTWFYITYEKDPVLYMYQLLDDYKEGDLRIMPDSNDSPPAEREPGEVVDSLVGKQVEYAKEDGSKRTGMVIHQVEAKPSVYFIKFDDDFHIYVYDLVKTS

Tests used:
GFP-SPINDOC [1] = biological target: GFP-SPINDOC (UniProt Q9BUA3); experiment: co-IP; anti-GFP or anti-Flag IP from lysates of transfected cells (48 h); mild lysis buffer (20 mM Tris-HCl pH 8.0, 150 mM NaCl, 1 mM EDTA, 0.5% Nonidet P-40), protein A/G resin, 4 °C, Western blot
GFP-SPINDOC 115–165aa [2] = biological target: GFP-SPINDOC 115–165aa (UniProt Q9BUA3); experiment: as above
GFP-SPINDOC 115–165aa [3] = biological target: GFP-SPINDOC 115–165aa (UniProt Q9BUA3); experiment: co-IP; anti-GFP IP of co-transfected GFP-SPINDOC 115–165aa and Flag-PARP1-DBD, in the presence or absence of DNase I and ethidium bromide
Flag-PARP1 = Flag-PARP1 (UniProt P09874); experiment: co-IP; anti-GFP or anti-Flag IP from lysates of transfected cells (48 h); mild lysis buffer (20 mM Tris-HCl pH 8.0, 150 mM NaCl, 1 mM EDTA, 0.5% Nonidet P-40), protein A/G resin, 4 °C, Western blot
[4] = biological target: PARP1 (endogenous) (human (endogenous in HEK293T)) (UniProt P09874); experiment: co-IP; reciprocal IPs for GFP-SPINDOC and PARP1, cells with or without Etoposide treatment
GFP-SPINDOC [5] = biological target: GFP-SPINDOC (UniProt Q9BUA3); experiment: co-sedimentation; 15–35% glycerol gradient of lysates of HEK293T cells or of HEK293T cells transfected with GFP-SPINDOC, 4 °C, 18 h, 26 fractions analysed by Western blot
[6] = biological target: SPINDOC (endogenous) (human (endogenous in HEK293T)) (UniProt Q9BUA3); experiment: as above
GFP-SPINDOC [7] = biological target: GFP-SPINDOC (UniProt Q9BUA3); experiment: co-IP; reciprocal IPs for GFP-SPINDOC and PARP1, cells with or without Etoposide treatment
GST-SPINDOC = GST-SPINDOC (UniProt Q9BUA3); experiment: pull-down; in vitro GST pulldown: purified GST or GST-SPINDOC incubated with recombinant PARP1, in the presence or absence of sheared DNA; both purified

In the case of Flag-PARP1 (from UniProt P09874 1-1014), the binding (GFP-SPINDOC [1]) is reported as “binds” and the binding (GFP-SPINDOC 115–165aa [2]) is reported as “no binding”.

With “Flag-PARP1-DBD (from UniProt P09874 1-373) (domain or fragment)” the binding (GFP-SPINDOC [1]) was “binds” and the binding (GFP-SPINDOC 115–165aa [3]) was “binds”.

With GFP-SPINDOC (from UniProt Q9BUA3 1-381) the binding (Flag-PARP1) was “binds” and the binding [4] was “binds”.

With “PARP1 (endogenous) (from UniProt P09874 1-1014)” the binding (GFP-SPINDOC [5]) was “binds”, the binding [6] was “binds” and the binding (GFP-SPINDOC [7]) was “binds”.

In the case of PARP2 (from UniProt Q9UGN5 1-583), the binding (GFP-SPINDOC [1]) is reported as “no binding”.

SPIN1 (from UniProt Q9Y657 1-262) was tested, and the binding (Flag-PARP1) was “no binding”.

With “recombinant PARP1 (from UniProt P09874 1-1014) (enzyme)” the binding (GST-SPINDOC) was “binds”.
